# Assay results reported in the supplement of paper PMC12578646, “Prodrug florfenicol amine is activated by intrinsic resistance to target Mycobacterium abscessus” (Nature Microbiology, 2025).
# ± gives the standard deviation of the averaged measurements. M. abscessus ATCC 19977 and its deletion, point and complemented mutants after 5 days of drug at 37 °C plus 24 h of resazurin. Growth in % of untreated wells at the dose given (lower = more inhibition); checkerboards give % inhibition (higher = more inhibition); IC50 from the fitted curve (lower = more potent). No active / inactive call. IC50 values come from the same 384-well curves. Growth is not capped and can exceed 100%. The direction of the checkerboard scale is read from the raw signals. Capreomycin is a mixture.
# Legend:
# Assay in all cases: growth relative to untreated wells; higher = more growth (less inhibition)
# [1] = tested on: Mycobacterium abscessus ATCC 19977 WhiB7 T70fs
# Method: (§1)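 384-well two-fold dose series, two replicates; 5 days at 37 °C, then 24 h with resazurin; fluorescence scaled to growth and killed controls.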
# [2] = tested on: Mycobacterium abscessus ATCC 19977
# Method: as §1
# [3] = tested on: Mycobacterium abscessus ATCC 19977 Δeis2
# Method: as §1
# [4] = tested on: Mycobacterium abscessus ATCC 19977 Eis2 Y227D
# Method: as §1
# [5] = tested on: Mycobacterium abscessus ATCC 19977 ΔwhiB7
# Method: as §1
# [6] = tested on: Mycobacterium abscessus ATCC 19977 WhiB7 L37P
# Method: as §1
# [7] = tested on: Mycobacterium abscessus ATCC 19977 Eis2 T258R
# Method: as §1
# [8] = tested on: Mycobacterium abscessus ATCC 19977 Eis2 Y284*
# Method: as §1
# [9] = tested on: Mycobacterium abscessus ATCC 19977 Eis2 E120fs
# Method: as §1
# [10] = tested on: Mycobacterium abscessus ATCC 19977 WhiB7 F24fs
# Method: as §1
# [11] = tested on: Mycobacterium abscessus ATCC 19977 WhiB7 R76del
# Method: as §1
# [12] = tested on: Mycobacterium abscessus ATCC 19977 Eis2 Y255*
# Method: as §1
structure (smiles),measurement,setting,value
NC[C@H]1O[C@H](O[C@H]2[C@H](O)[C@@H](O[C@H]3O[C@H](CO)[C@@H](O)[C@H](N)[C@H]3O)[C@H](N)C[C@@H]2N)[C@H](N)[C@@H](O)[C@@H]1O [kanamycin B],growth,[1]; 0.03125 µg/mL,111 ± 6.9%
same,growth,[1]; 0.0625 µg/mL,115 ± 1.5%
same,growth,[1]; 0.125 µg/mL,112 ± 6.3%
same,growth,[1]; 0.25 µg/mL,110.2 ± 0.49%
same,growth,[1]; 0.5 µg/mL,123 ± 3%
same,growth,[1]; 1 µg/mL,130 ± 4.8%
same,growth,[1]; 2 µg/mL,3.24 ± 7.7%
same,growth,[1]; 4 µg/mL,-3.61 ± 1.5%
same,growth,[1]; 8 µg/mL,-2.63 ± 0.94%
same,growth,[1]; 16 µg/mL,-2.4 ± 1%
same,growth,[1]; 32 µg/mL,-2.14 ± 0.58%
same,growth,[1]; 64 µg/mL,-0.817 ± 0.82%
same,growth,[2]; 0.03125 µg/mL,113 ± 4%
same,growth,[2]; 0.0625 µg/mL,118 ± 2.2%
same,growth,[2]; 0.125 µg/mL,112 ± 3.6%
same,growth,[2]; 0.25 µg/mL,116 ± 4.5%
same,growth,[2]; 0.5 µg/mL,119 ± 2.3%
same,growth,[2]; 1 µg/mL,121 ± 9.5%
same,growth,[2]; 2 µg/mL,125 ± 4.6%
same,growth,[2]; 4 µg/mL,131 ± 7%
same,growth,[2]; 8 µg/mL,16.1 ± 11%
same,growth,[2]; 16 µg/mL,0.479 ± 1.4%
same,growth,[2]; 32 µg/mL,0.336 ± 0.82%
same,growth,[2]; 64 µg/mL,1.31 ± 0.61%
same,growth,[3]; 0.03125 µg/mL,103.2 ± 0.5%
same,growth,[3]; 0.0625 µg/mL,106 ± 3%
same,growth,[3]; 0.125 µg/mL,104.3 ± 0.45%
same,growth,[3]; 0.25 µg/mL,106 ± 1.6%
same,growth,[3]; 0.5 µg/mL,107 ± 5.5%
same,growth,[3]; 1 µg/mL,129 ± 3.6%
same,growth,[3]; 2 µg/mL,107 ± 10%
same,growth,[3]; 4 µg/mL,-0.708 ± 0.55%
same,growth,[3]; 8 µg/mL,-1.03 ± 0.15%
same,growth,[3]; 16 µg/mL,-0.75 ± 0.14%
same,growth,[3]; 32 µg/mL,-0.267 ± 0.43%
same,growth,[3]; 64 µg/mL,0.368 ± 0.2%
same,growth,[4]; 0.03125 µg/mL,110 ± 13%
same,growth,[4]; 0.0625 µg/mL,117 ± 5.3%
same,growth,[4]; 0.125 µg/mL,116 ± 10%
same,growth,[4]; 0.25 µg/mL,118.1 ± 0.96%
same,growth,[4]; 0.5 µg/mL,116 ± 13%
same,growth,[4]; 1 µg/mL,137 ± 5.3%
same,growth,[4]; 2 µg/mL,143.1 ± 0.26%
same,growth,[4]; 4 µg/mL,1.32 ± 0.51%
same,growth,[4]; 8 µg/mL,0.804 ± 0.66%
same,growth,[4]; 16 µg/mL,1.13 ± 0.016%
same,growth,[4]; 32 µg/mL,1.66 ± 0.13%
same,growth,[4]; 64 µg/mL,2.76 ± 0.1%
same,growth,[5]; 0.03125 µg/mL,120.9 ± 0.047%
same,growth,[5]; 0.0625 µg/mL,113 ± 8.4%
same,growth,[5]; 0.125 µg/mL,111 ± 6%
same,growth,[5]; 0.25 µg/mL,129 ± 7.9%
same,growth,[5]; 0.5 µg/mL,149.5 ± 0.85%
same,growth,[5]; 1 µg/mL,158 ± 2.5%
same,growth,[5]; 2 µg/mL,-1.87 ± 4.3%
same,growth,[5]; 4 µg/mL,-1.99 ± 4.2%
same,growth,[5]; 8 µg/mL,-2.09 ± 4.5%
same,growth,[5]; 16 µg/mL,-1.86 ± 4.6%
same,growth,[5]; 32 µg/mL,-1.6 ± 4.2%
same,growth,[5]; 64 µg/mL,-0.665 ± 4.6%
same,growth,[6]; 0.03125 µg/mL,116 ± 2.4%
same,growth,[6]; 0.0625 µg/mL,130 ± 5.5%
same,growth,[6]; 0.125 µg/mL,123 ± 2.9%
same,growth,[6]; 0.25 µg/mL,129 ± 3.9%
same,growth,[6]; 0.5 µg/mL,127.7 ± 0.55%
same,growth,[6]; 1 µg/mL,132 ± 6.2%
same,growth,[6]; 2 µg/mL,-0.32 ± 0.029%
same,growth,[6]; 4 µg/mL,-0.0836 ± 0.016%
same,growth,[6]; 8 µg/mL,-0.251 ± 0.11%
same,growth,[6]; 16 µg/mL,-0.108 ± 0.3%
same,growth,[6]; 32 µg/mL,-0.0763 ± 0.012%
same,growth,[6]; 64 µg/mL,1.39 ± 0.33%
same,growth,[7]; 0.03125 µg/mL,107.9 ± 0.77%
same,growth,[7]; 0.0625 µg/mL,117.8 ± 0.58%
same,growth,[7]; 0.125 µg/mL,115.5 ± 0.84%
same,growth,[7]; 0.25 µg/mL,117 ± 7.2%
same,growth,[7]; 0.5 µg/mL,120 ± 4%
same,growth,[7]; 1 µg/mL,130 ± 5.2%
same,growth,[7]; 2 µg/mL,102 ± 16%
same,growth,[7]; 4 µg/mL,0.977 ± 2.6%
same,growth,[7]; 8 µg/mL,-1.2 ± 0.27%
same,growth,[7]; 16 µg/mL,-1.04 ± 0.13%
same,growth,[7]; 32 µg/mL,-0.669 ± 0.011%
same,growth,[7]; 64 µg/mL,0.385 ± 0.59%
same,growth,[8]; 0.03125 µg/mL,113 ± 2%
same,growth,[8]; 0.0625 µg/mL,112.3 ± 0.71%
same,growth,[8]; 0.125 µg/mL,111 ± 2.7%
same,growth,[8]; 0.25 µg/mL,111 ± 6.3%
same,growth,[8]; 0.5 µg/mL,118 ± 4.1%
same,growth,[8]; 1 µg/mL,129.1 ± 0.65%
same,growth,[8]; 2 µg/mL,120 ± 2.9%
same,growth,[8]; 4 µg/mL,-0.379 ± 0.53%
same,growth,[8]; 8 µg/mL,-0.717 ± 0.44%
same,growth,[8]; 16 µg/mL,5.84 ± 8.2%
same,growth,[8]; 32 µg/mL,0.0245 ± 0.52%
same,growth,[8]; 64 µg/mL,1.02 ± 0.12%
same,growth,[9]; 0.03125 µg/mL,114 ± 1.6%
same,growth,[9]; 0.0625 µg/mL,113 ± 7.8%
same,growth,[9]; 0.125 µg/mL,117 ± 8.3%
same,growth,[9]; 0.25 µg/mL,121 ± 7.7%
same,growth,[9]; 0.5 µg/mL,122 ± 3.1%
same,growth,[9]; 1 µg/mL,137 ± 4.2%
same,growth,[9]; 2 µg/mL,150 ± 6.1%
same,growth,[9]; 4 µg/mL,2.59 ± 0.65%
same,growth,[9]; 8 µg/mL,-0.378 ± 0.029%
same,growth,[9]; 16 µg/mL,0.0344 ± 0.47%
same,growth,[9]; 32 µg/mL,0.944 ± 2.1%
same,growth,[9]; 64 µg/mL,1.33 ± 0.8%
same,growth,[10]; 0.03125 µg/mL,122 ± 4.8%
same,growth,[10]; 0.0625 µg/mL,118 ± 5.2%
same,growth,[10]; 0.125 µg/mL,116 ± 2.1%
same,growth,[10]; 0.25 µg/mL,123 ± 3.9%
same,growth,[10]; 0.5 µg/mL,127 ± 1.8%
same,growth,[10]; 1 µg/mL,130 ± 2.6%
same,growth,[10]; 2 µg/mL,0.901 ± 0.85%
same,growth,[10]; 4 µg/mL,-0.157 ± 0.53%
same,growth,[10]; 8 µg/mL,-0.149 ± 0.21%
same,growth,[10]; 16 µg/mL,0.11 ± 0.15%
same,growth,[10]; 32 µg/mL,-0.155 ± 0.39%
same,growth,[10]; 64 µg/mL,1.58 ± 0.31%
same,growth,[11]; 0.03125 µg/mL,119 ± 7.4%
same,growth,[11]; 0.0625 µg/mL,110 ± 1.3%
same,growth,[11]; 0.125 µg/mL,120 ± 6.3%
same,growth,[11]; 0.25 µg/mL,119 ± 1.3%
same,growth,[11]; 0.5 µg/mL,120 ± 1.6%
same,growth,[11]; 1 µg/mL,126 ± 4.7%
same,growth,[11]; 2 µg/mL,0.00844 ± 0.24%
same,growth,[11]; 4 µg/mL,-0.592 ± 0.52%
same,growth,[11]; 8 µg/mL,-0.595 ± 0.66%
same,growth,[11]; 16 µg/mL,-0.285 ± 0.51%
same,growth,[11]; 32 µg/mL,-0.0151 ± 0.62%
same,growth,[11]; 64 µg/mL,1.17 ± 0.48%
same,growth,[12]; 0.03125 µg/mL,115 ± 6.3%
same,growth,[12]; 0.0625 µg/mL,114.8 ± 0.51%
same,growth,[12]; 0.125 µg/mL,115 ± 18%
same,growth,[12]; 0.25 µg/mL,119.7 ± 0.36%
same,growth,[12]; 0.5 µg/mL,130 ± 7.6%
same,growth,[12]; 1 µg/mL,134 ± 5%
same,growth,[12]; 2 µg/mL,123 ± 4.3%
same,growth,[12]; 4 µg/mL,-1.09 ± 1.4%
same,growth,[12]; 8 µg/mL,-1.88 ± 2%
same,growth,[12]; 16 µg/mL,-1.65 ± 1.7%
same,growth,[12]; 32 µg/mL,-1.24 ± 2.5%
same,growth,[12]; 64 µg/mL,-0.445 ± 1.5%
